Laboratory results: US20110027291A1 (MERRIMACK PHARMACEUTICALS, published 2011)

How the values were obtained:
[1] = molecular target: ErbB2 on OVCAR8 and OVCAR8-HER2 cells (UniProt P04626); assay: cell-based or functional assay
ErbB3 on NCI-ADRr cells = ErbB3 on NCI-ADRr cells (UniProt P21860 20-1342, limits assumed); assay: cell-based or functional assay
ErbB3 = molecular target: T1, ErbB3 (UniProt P21860 partial chain, limits assumed); assay: BIACore and KinExA; H3 single chain arm binding ErbB3
T1 construct: Elsewhere it speaks of the ectodomain of human ErbB3; also called E3; HER3

ErbB2 = molecular target: T2, ErbB2 (UniProt P04626 partial chain, limits assumed); assay: BIACore and KinExA; B1D2 single chain arm binding ErbB2
T2 construct: also called E2; HER2

B1: bispecific antibody H3×B1D2 (bispecific antibody)
chain: QVQLQESGGGLVKPGGSLRLSCAASGFTFSSYWMSWVRQAPGKGLEWVANINRDGSASYYVDSVKGRFTISRDDAKNSLYLQMNSLRAEDTAVYYCARDRGVGYFDLWGRGTLVTVSSASTGGGGSGGGGSGGGGSQSALTQPASVSGSPGQSITISCTGTSSDVGGYNFVSWYQQHPGKAPKLMIYDVSDRPSGVSDRFSGSKSGNTASLIISGLQADDEADYYCSSYGSSSTHVIFGGGTKVTVLGAAS[about 600 residues skipped]AAALQVQLVQSGAEVKKPGESLKISCKGSGYSFTSYWIAWVRQMPGKGLEYMGLIYPGDSDTKYSPSFQGQVTISVDKSVSTAYLQWSSLKPSDSAVYFCARHDVGYCTDRTCAKWPEWLGVWGQGTLVTVSSGGGGSSGGGSGGGGSQSVLTQPPSVSAAPGQKVTISCSGSSSNIGNNYVSWYQQLPGTAPKLLIYDHTNRPAGVPDRFSGSKSGTSASLAISGFRSEDEADYYCASWDYTLSGWVFGGGTKLTVLG
notes: The rate constants are told for each single chain arm of the bispecific; also called H3 x B1D2; anti-ErbB3×anti-ErbB2 bispecific antibody
[1]
  IC50 (printed as DR50data) of inhibition of HRG-induced pErbB3, ELISA, OVCAR8 cells, 5 nM HRG, lysis at 10 min: 1.7e-09 M
ErbB3 on NCI-ADRr cells
  IC50 (printed as DR50data) of inhibition of HRG-induced pErbB3, ELISA, ADrR cells, 5 nM HRG, lysis at 10 min: 9.4e-09 M
ErbB3
  koff: 0.022 s⁻¹
  kon: 350000 M⁻¹ s⁻¹
ErbB2
  koff: 0.00015 s⁻¹
